# Experimental data published in the supplement of paper PMC11417369.
# ± gives the standard deviation of the averaged measurements. This is one part of the list.
# Tested on: PfAP2-I AP2 domain 3 (GST-tagged)
# Assay: gcPBM binding intensity (ln(normalized median fluorescence intensity)); higher = stronger DNA binding
# In short: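 Binding intensity values are the highest Masliner-normalised natural-log median intensity among replicate spots of either probe orientation. The binding step lasted 1 h in 1× PBS with 1% milk, 0.2 mg/ml BSA, 0.5% salmon testes DNA and 0.03% Triton X-100, using GST-tagged P. falciparum DNA-binding domains expressed in E. coli on an Agilent 4 × 180k array of primer-extended double-stranded 36-bp intergenic genomic probes plus negative controls. Alexa488 anti-GST antibody and a 488 nm scan detected bound protein.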
row,Sequence,gcPBM binding intensity (ln)
1,ACATATGTATAATAATGTACGCATTAAATATAATTA [XGTACX_site7851],7.75 ± 0.37
2,AAAAAAAAATAAAATAAAATAAAATAAAATAATATA [CACACA_negctrl_site1798],7.32 ± 0.57
3,ATAATATATATTAATACACACACACCGATATATATA [CACACA_site9261],8.27 ± 0.68
4,GACCAATACTTTAAAAGTACAAACCTTATTTTATTT [XGTACX_site2718],7.93 ± 0.57
5,AGGAGGATATTACACAGTACCCAGGAAATCTACGGA [XGTACX_site4878],7.92 ± 0.46
6,TATTTTATAAATACAAGTAAAATTAAATATATAATA [XGTACX_negctrl_site221],7.42 ± 0.41
7,TTGTACTACAATCCTTTATTTATTTAAACCTGTATG [CACACA_negctrl_site428],7.7 ± 0.59
8,TATATAAATAGACACACACACACATATAAATAAATA [CACACA_site7855],7.77 ± 0.37
9,TTTCAATGCATAAAAGTGCGCAATAATTTAAAGATC,9.73 ± 0.071
10,AATGTGATAATATACACACACGCATATATATATATA [CACACA_site323],9.41 ± 0.63
11,CTGTGTAATTTAAATTGTACGTTTGAAAAAAATAAA [XGTACX_site5667],7.88 ± 0.5
12,AAAACACTTATGGATTGTACAATAAAAATTATATTA [XGTACX_site7042],7.88 ± 0.24
13,TTTTAAAGAAAAAAATGTACAAAATTTTTATTTTAA [XGTACX_site1496],7.31 ± 0.47
14,ACCCACGTAAATTAAGCATGCCTTCCGTTATATTTA [TGCATGCA_site365],8.06 ± 0.48
15,TTTTACTAAATATATACACACATTATGCATATATAT [CACACA_site3287],8.39 ± 0.67
16,TATGTGAATATAATCACACACAATACGGAAAGAGAC [CACACA_site7311],8.84 ± 0.11
17,TTTTTTTTTTATAAGGCACACATGAATATTTATACA [CACACA_site1316],10.3 ± 0.35
18,TATATGTAATATTATACATGCATACATAATATATAT [TGCATGCA_site558],8.13 ± 0.77
19,AAAAGGAATTATAGGAAATAAATATATACAAATATA [TGCATGCA_negctrl_site528],7.38 ± 0.61
20,CGATTTTTTAAGTTTGTGCACTTAAAAACTATAACA,10.9 ± 0.54
21,CCATTTGATAATAATGCACACCACATATATTTATAT [CACACA_site9002],11 ± 0.4
22,TATTTCAAAATAAAATAAAATATATATATATGTATA [XGTACX_negctrl_site416],7.51 ± 0.36
23,TATATGTCAATATCTACACACATATAGGTAATTATT [CACACA_site7475],7.59 ± 0.42

row,Sequence,gcPBM binding intensity (ln)
1,TATACTATACAACACATACACACAAAAAAAAAAAAA [CACACA_site537],7.99 ± 0.42
2,TAAATCATGGGATAAGCATGCGCGCACATGTTTGTT [TGCATGCA_site768],7.88 ± 0.9
3,TTTATTTATTAAGAATGTACATGTATTTGTTAAATA [XGTACX_site4465],7.78 ± 0.18
4,GTATTATCTGCTTTTTGTACACATATATTTAAAAAA [XGTACX_site7603],8.62 ± 0.3
5,TTCTGTGTGTATTGGCGTACAATTATTTTGCCTACA [XGTACX_site205],8.25 ± 0.76
6,ACATTCACAAAATTTTGTACACATATATATATATAT [XGTACX_site3518],9.19 ± 0.13
7,ATTATTACTTTTTGAGTGCACATACACACAGACATA,10.5 ± 0.22
8,ATTTTTCATTCTGGACATGTTACCATTATATATATG [CACACA_negctrl_site61],8.15 ± 0.72
9,ATAACTATAATAATCATACACACCAAAGAGAATATT [CACACA_site6970],7.88 ± 0.52
10,TTTTGTTTAAAAAAAAAAAACAAAAAAAAGCAATTA [CACACA_negctrl_site314],7.42 ± 0.59
11,ATTAAAAAAATATACGCACACAAAATGTAATAACAA [CACACA_site2439],8.36 ± 0.45
12,TAATTTGTTATGTATTGTACAAATAATATATGATAT [XGTACX_site1985],7.86 ± 0.35
13,TTACATAATTTATGTACACACGCAAATACTTATAAT [CACACA_site4331],8.1 ± 0.26
14,TTTATTTATAGGTATACACACTTTAATTAAAAGTTG [CACACA_site7232],7.79 ± 0.61
15,CCTAAAGTGTAAAATTCACACACATATATATATATA [CACACA_site8385],9.22 ± 0.37
16,TTTATTTTTGAAGTTGCACACACAAAAATAAAAAGT [CACACA_site8030],8.52 ± 0.18
17,ATGAAACACTCCATAGTGCAAAATATATATTATATT,10.27 ± 0.057
18,CTATTTTTCCTGAAATGTACAAGAATTTTATTTGAT [XGTACX_site8867],7.57 ± 0.42
19,TGATAATATTATATATGTACATATATGTATATTTTT [XGTACX_site7193],7.57 ± 0.3
20,AATTCAATTGAGCAAAATTCAAATAAATTAAAAAGA [XGTACX_negctrl_site71],7.36 ± 0.72
21,CAAAAATAATTTAGGTGTACAAATTTGACAAAAAAA [XGTACX_site188],8.04 ± 0.57
22,ATATGGGTGAACATATGTACATATATATATTGATAA [XGTACX_site8438],7.87 ± 0.55
23,TTGGTATATTATAAAAGTACACATAATAAAAAATTT [XGTACX_site7985],8.05 ± 0.4

row,Sequence,gcPBM binding intensity (ln)
1,TTTTTTTCAATATTTGCACACGATTAAAATATTTAA [CACACA_site5266],9.375 ± 0.035
2,TATTATATATATATATGTACATATTGTATGTTATAT [XGTACX_site5303],7.81 ± 0.45
3,CAAACATATTAATGTACACACACCCACCCACAAACA [CACACA_site2752],8.99 ± 0.73
4,TATGTGAATATTGAGGTGCGGTTGTTAAAATTTATA [GTGCAC_site9915],8.9
5,TTAAATATTTTTTATACACACATTTCTTATTTAACT [CACACA_site229],7.74 ± 0.65
6,TAATTATTATTAATAGTACACACTATGGCATTTCAA [CACACA_site2488],7.74 ± 0.41
7,AGTAGTCTGGAGAAGAGTACACAGTATCTGGTAGCT [XGTACX_site2042],7.64 ± 0.64
8,ACATTAACATTGTTGGTGCAAAATTAATATGTTTTT [GTGCAC_site9673],10.6 ± 0.28
9,GGAAAATGAAAACAAGGTACACATAAGAACAAACAA [XGTACX_site1221],8.17 ± 0.75
10,AATAGGGTCATTCAAAAAAAAAAAAAATAATAATAC [CACACA_negctrl_site644],7.78 ± 0.71
11,AAATTTGCTTTACCAGTGCAAAAAAAAAAAAAAAAA,10.3 ± 0.32
12,TGTTTTTATCCTTATGGTACAGTATAATACTTACAG [XGTACX_site6381],7.88 ± 0.54
13,AAATCACATAAAAATAGTACTTTTTTTTTTTTTTTT [XGTACX_site2696],8.5 ± 0.47
14,TATATGTTTAATTTCACACACAAATATGCATTTTAA [CACACA_site7881],7.74 ± 0.5
15,AAATAAATACTAGGCACACACACATATATATATATA [CACACA_site2079],9.12 ± 0.099
16,ATTGTAAGGAAACACACACACATATATATGTATATA [CACACA_site676],7.74 ± 0.52
17,ATTATTGTAATATTAGCACACATTACCTCACTACAA [CACACA_site2560],8.71 ± 0.37
18,ATATATATATATATATGTACGTATAATATATATATG [XGTACX_site2212],9.22 ± 0.58
19,ATTATTCAGGTAAAGTGTACAGGAGAAAAATAAAAT [XGTACX_site334],8.44 ± 0.54
20,CGCACCCAAATATATACACACATATATATATATATA [CACACA_site1651],9.36 ± 0.38
21,TTAATATTCCAGCTTTGTACATATATATATTATAAA [XGTACX_site7954],7.86 ± 0.38
22,TTAATGGAAAAATAGGCACACACACCGATATACATA [CACACA_site8356],8.05 ± 0.71
23,TTTTACATAAATTATAAATATATAAAATAAAAAAAA [CACACA_negctrl_site1499],7.48 ± 0.71

row,Sequence,gcPBM binding intensity (ln)
1,CATATATATATTTTTTGTACATATATTTTTACATAT [XGTACX_site8419],7.95 ± 0.38
2,AAAAAGAAGAAGAAATGTACGTAACTATATATTTAT [XGTACX_site4362],7.76 ± 0.76
3,AGTACATTATAGAATACACACCTATATATATATATA [CACACA_site4447],9.4 ± 0.44
4,AATTATTAAATATGTACACACGTACATTTTATAAAT [CACACA_site5341],7.71 ± 0.29
5,TAATACATACACACATGTACATACAGAAATAAATAA [XGTACX_site3245],7.96 ± 0.2
6,TATTTTGTTCTTTCCACACACAAATACATATATTGT [CACACA_site4071],8.22 ± 0.53
7,AATATAAAAATGTTTACACACACACGGAAATATATT [CACACA_site7226],8.01 ± 0.76
8,ATATATATATGTGGATGTACATATATCTCTTATTAT [XGTACX_site1748],8.89 ± 0.36
9,TAAAATTAATAAAATATTTTCACTTAATATATATAA [CACACA_negctrl_site1550],7.52 ± 0.34
10,ATGTTGTACAAACACACACACAAAAAAAAAATAAAA [CACACA_site2406],8.07 ± 0.17
11,GGCATATATATATGCACACATACATATATACATGTG [CACACA_site3859],9.63 ± 0.16
12,TACACATACAGACATACACACATACCCATATACTCA [CACACA_site5037],7.83 ± 0.42
13,ATATTATACGCATATGTGCGCATACATTTTTTTGCA [GTGCAC_site9540],10.2 ± 0.64
14,TTATTTACAAAACAAATCAAAATATCCAAAAGAATA [CACACA_negctrl_site1789],7.28 ± 0.33
15,GAAATTACTTTATAAACACACATTTATTTTATTTTA [CACACA_site7007],7.95 ± 0.26
16,TCATATTTATATAAATGTACTTAATTGGTTTCTTTA [XGTACX_site7848],7.66 ± 0.56
17,ATGTTATTAATAATTGCACACATTTTTTTTTTTTTT [CACACA_site3920],9.12 ± 0.23
18,AGATTGTAAGTAAACACACACACATATATATGTATA [CACACA_site675],7.57 ± 0.73
19,ATTCATTCCATACTTTAACACACAAATATATTTAAT [CACACA_site7930],8.14 ± 0.55
20,AAAAAAAAAAAAAACACACAGAAATATATATATATT [CACACA_site832],8.09 ± 0.52
